Assay results as given in the supplement of paper PMC10126150.
Values marked as one replicate rest on one cluster of the flow cell; about a third of the high ones do not repeat.

Tested on: ATP
Assay: switch fluorescence ratio, 500 uM ATP over buffer (Cy3 cluster intensity, sum of 5 cycles each) (fold (ratio)); higher = stronger signal-on switching upon ATP binding; sequences stand for … in TCGTCGGCAGCGTCAGATGTGTATAAGAGACAGTTTTTTTTTTTTTTTTTTTTTTTTT…TC
Conditions: aptamer strand: ATP DNA aptamer (quencher-CACCTGGGGGAGTATTGCGGAGGAAGG + anchor), 100 nM annealed; ATP concentration: 500 uM; one replicate
How it was run: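 Cy3-labelled switching-strand clusters on a modified Illumina MiSeq flow-cell were annealed to 100 nM quencher-labelled ATP aptamer and imaged first in selection buffer, then after 15 min with 500 uM ATP at 22 °C. NaOH stripping and re-annealing separated each of five buffer/ATP cycles, and clusters outside 100-1000 RFU were excluded. The fluorescence ratio sums target-cycle Cy3 intensity over buffer-cycle Cy3 intensity per cluster and averages it per switch-domain sequence.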
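Further: ATP exposure 15 min at 22 °C before imaging.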

Sequence | switch fluorescence ratio
GGTATCTTTT | 0.963
TCAAAGTTAG | 1.11
ATTTCCCTTT | 0.999
TCTGTGGAAA | 1.04
AACGGCAAAA | 1.36
CGAGAGCTAT | 1.61
ATCAAATGGC | 1.04
ATCTCTTAAT | 1
TTCGTTAAGT | 1.02
TAAGGGCTGT | 0.971
TAAATGTCAG | 1.03
ATTTTGGG | 0.91
CACTCTTAGG | 1.01
CTGAATGCTA | 1.32
ATGTGGTT | 1
ATCAGTAGGG | 1.03
GATGCTGTTT | 0.96
ATGCGTTTAG | 0.997
GAGGTACGAA | 0.976
TTTCCACGTC | 1.02
TCACGAGGGC | 1.03
GACGCTGGTG | 1.03
GGAGTCTGTA | 0.972

Sequence | switch fluorescence ratio
ACTGTGAAGC | 0.944
CTATCCTAGC | 1.07
TCACGTGTGA | 0.954
AGGGTGTTAC | 0.949
GACGATGTCG | 0.926
TCTCGGGGTT | 1.05
AAGGTTCTCG | 0.954
AGCTTGCGGC | 0.992
AGCGGGCTCG | 1.04
GTTCACAGAG | 1.06
GGCCAAAGAA | 1.04
TGCGCCCTTT | 1.03
ATGGTAACCA | 0.969
AGCACGTAGA | 1.03
ATATAGCAAT | 2.68
ACCTTAGTTT | 1.04
CGTTGTTTGT | 0.968
GGCAATGAAT | 0.961
TTAGTACCTG | 1.07
GGCTGACTCC | 2.56
AGTCTGTGTA | 0.969
ATTTGTAACC | 0.995
TGATAGCCGG | 1.02

Sequence | switch fluorescence ratio
CTCAAAGCGC | 0.989
ATCCAGTAGC | 1.03
CGTAGAGTGG | 1.01
ACGCCGCTTA | 1.77
TTAAATGGCT | 1.23
TTCGTACCG | 0.954
CATGATTTGT | 1
AAATCATCCA | 0.989
ACTGAGGTTA | 1.02
AGGTAAGTG | 0.927
TGCACTAAGT | 1.01
CATCAGCGCC | 1.4
CCGAATCAAG | 2.09
GCACGTAGAA | 1.11
CGTAGAAAAT | 1
TAGTTAGCTG | 1.06
GATGTCGGCG | 1.06
TAAGCTTAAG | 0.942
TTTCGCTGGT | 1.3
CGGTTGTGTG | 1.01
TTAACCGTAA | 1.26
GATTAAGCGA | 1.06
AAGTCCGGG | 0.997

Sequence | switch fluorescence ratio
TGAACGCCCG | 1.04
TAGCTCGTGG | 1.07
CGATGCCCGT | 0.972
CCCGAGGGAG | 1.06
AGGTTGAATA | 0.971
CGTGAAGTAG | 0.983
CAAATGCTTA | 0.972
CTCAATATTG | 1
ATGGTATACG | 1.09
AACTCTGGT | 0.949
ATCTTCCTTT | 1.1
CGTGGAGCGG | 0.944
GCAAGATAAC | 1.13
CTCGGCCTGA | 1.06
CGTAATCAAG | 0.982
GCTGGTTAC | 1.04
AGGTTCTTTT | 0.99
GAGCTACATT | 1.05
TGAGCCTTGC | 0.985
TTAGGGACTT | 1.12
GGTAGGACCG | 0.894
AAGAACGATG | 1.03
GCCGCATCGG | 1.04

Sequence | switch fluorescence ratio
TAAGCCGACA | 1.04
TGCCGTTCAC | 0.974
TCCGTGTGCC | 1.3
CGAGTTCCCG | 0.983
ATATGCCGTC | 0.998
AATCCAGGCT | 0.98
CACGAGCAAT | 2.47
CACTCCGTTG | 1.38
TTTCGTTCAG | 0.988
GAGTCACATT | 1.03
GGCGAGGTGC | 0.993
ACTGCGCTCA | 1.64
AGGACAGTAT | 0.998
TATCAATCCG | 1.03
TAGTCGCTC | 0.99
TGGGCCCTTG | 0.983
GCCATAGCGG | 0.971
AATAGAACTC | 1.02
TTTAGAAATG | 0.984
ACCATGAAAT | 0.963
ACCTTGCTAC | 3.33
AAAGACGTGT | 1.02
CACTAGTTGT | 1.03

Sequence | switch fluorescence ratio
ACGCACACAA | 1.54
GCGGGTAATA | 0.978
AAGTCGGTAA | 0.994
TACCCCCTT | 1.22
ACAACCGGAC | 1.95
TGTAGCGGCG | 1.01
TTCACTTAA | 0.953
GGCTTCGAAC | 1.03
GATGCATGTA | 0.965
AATACGCGCT | 1.01
CACCTCGGCT | 1.08
TCTCTCAA | 1.23
CAAGGTCTAG | 1
TGGGCATCGC | 1.03
AGGTTTGGTG | 0.984
ACGTGAGATA | 1.05
TTTACGCACC | 1.25
GTTACATGGT | 1.03
GCGGTCACCG | 0.978
ACCCGTCAAT | 3.86
GTATAGTGC | 0.95
GCTCATATTG | 0.994
CTTGGCTCAC | 1.06

Sequence | switch fluorescence ratio
AAGGACGATG | 1.03
TAGGGGTCCG | 1.04
AGGACACGTT | 1.12
TAGGCTTTCA | 0.967
TGCCTCGCGA | 2.04
TACGGAAGGC | 1.03
CGGGGGATCG | 1.02
AACGCTGGAC | 4.14
AACGTAAGT | 1.04
TCTAGAAAGG | 0.975
AGTGTTGGTG | 1.03
GAGACCAGGA | 1.08
GCTGAATAGG | 1.01
GTGTATGGTA | 1.01
TTTTACCGTC | 1.32
GTTCCATAT | 1.03
GGCACCCGCT | 1.02
GTATACTTC | 1.11
TATAATCGCG | 0.985
